Results are given in words; binding and its absence hold for the method and conditions named. In cells and extracts the contact can be indirect. Some entries that bind do so weakly or less than the wild type. For some assays here: Tags and fused reporters may be left off the sequences shown.
Tests used:
[1] = molecular target: GST-tagged BOD1L fragment 1 (aa 1-600 of BOD1L) (human) (UniProt Q8NFC6); assay: pull-down; 1 ug affinity-purified GST or GST fusion protein incubated with pre-clarified HeLa nuclear extract for 3 hr at 4 C, glutathione Sepharose, immunoblotting; only the target purified
[2] = molecular target: T1, GST-tagged BOD1L fragment 2 (aa 500-1000 of BOD1L) (human) (UniProt Q8NFC6); assay: as above
T1 sequence: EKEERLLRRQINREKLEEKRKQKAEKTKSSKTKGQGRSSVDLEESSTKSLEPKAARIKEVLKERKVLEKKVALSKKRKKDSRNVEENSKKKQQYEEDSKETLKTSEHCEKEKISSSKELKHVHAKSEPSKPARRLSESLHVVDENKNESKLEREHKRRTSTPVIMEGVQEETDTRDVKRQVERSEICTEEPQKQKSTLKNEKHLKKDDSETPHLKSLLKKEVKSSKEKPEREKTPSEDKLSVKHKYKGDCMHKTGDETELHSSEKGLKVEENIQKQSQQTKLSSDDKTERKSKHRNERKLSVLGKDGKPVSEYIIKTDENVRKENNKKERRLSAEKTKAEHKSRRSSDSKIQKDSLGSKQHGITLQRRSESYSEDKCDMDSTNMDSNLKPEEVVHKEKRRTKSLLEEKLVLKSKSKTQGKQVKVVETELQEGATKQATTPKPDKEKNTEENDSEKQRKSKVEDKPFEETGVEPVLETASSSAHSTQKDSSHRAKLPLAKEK

The chains behind the UniProt entries cited, without tags or fusion partners.
UniProt O15047: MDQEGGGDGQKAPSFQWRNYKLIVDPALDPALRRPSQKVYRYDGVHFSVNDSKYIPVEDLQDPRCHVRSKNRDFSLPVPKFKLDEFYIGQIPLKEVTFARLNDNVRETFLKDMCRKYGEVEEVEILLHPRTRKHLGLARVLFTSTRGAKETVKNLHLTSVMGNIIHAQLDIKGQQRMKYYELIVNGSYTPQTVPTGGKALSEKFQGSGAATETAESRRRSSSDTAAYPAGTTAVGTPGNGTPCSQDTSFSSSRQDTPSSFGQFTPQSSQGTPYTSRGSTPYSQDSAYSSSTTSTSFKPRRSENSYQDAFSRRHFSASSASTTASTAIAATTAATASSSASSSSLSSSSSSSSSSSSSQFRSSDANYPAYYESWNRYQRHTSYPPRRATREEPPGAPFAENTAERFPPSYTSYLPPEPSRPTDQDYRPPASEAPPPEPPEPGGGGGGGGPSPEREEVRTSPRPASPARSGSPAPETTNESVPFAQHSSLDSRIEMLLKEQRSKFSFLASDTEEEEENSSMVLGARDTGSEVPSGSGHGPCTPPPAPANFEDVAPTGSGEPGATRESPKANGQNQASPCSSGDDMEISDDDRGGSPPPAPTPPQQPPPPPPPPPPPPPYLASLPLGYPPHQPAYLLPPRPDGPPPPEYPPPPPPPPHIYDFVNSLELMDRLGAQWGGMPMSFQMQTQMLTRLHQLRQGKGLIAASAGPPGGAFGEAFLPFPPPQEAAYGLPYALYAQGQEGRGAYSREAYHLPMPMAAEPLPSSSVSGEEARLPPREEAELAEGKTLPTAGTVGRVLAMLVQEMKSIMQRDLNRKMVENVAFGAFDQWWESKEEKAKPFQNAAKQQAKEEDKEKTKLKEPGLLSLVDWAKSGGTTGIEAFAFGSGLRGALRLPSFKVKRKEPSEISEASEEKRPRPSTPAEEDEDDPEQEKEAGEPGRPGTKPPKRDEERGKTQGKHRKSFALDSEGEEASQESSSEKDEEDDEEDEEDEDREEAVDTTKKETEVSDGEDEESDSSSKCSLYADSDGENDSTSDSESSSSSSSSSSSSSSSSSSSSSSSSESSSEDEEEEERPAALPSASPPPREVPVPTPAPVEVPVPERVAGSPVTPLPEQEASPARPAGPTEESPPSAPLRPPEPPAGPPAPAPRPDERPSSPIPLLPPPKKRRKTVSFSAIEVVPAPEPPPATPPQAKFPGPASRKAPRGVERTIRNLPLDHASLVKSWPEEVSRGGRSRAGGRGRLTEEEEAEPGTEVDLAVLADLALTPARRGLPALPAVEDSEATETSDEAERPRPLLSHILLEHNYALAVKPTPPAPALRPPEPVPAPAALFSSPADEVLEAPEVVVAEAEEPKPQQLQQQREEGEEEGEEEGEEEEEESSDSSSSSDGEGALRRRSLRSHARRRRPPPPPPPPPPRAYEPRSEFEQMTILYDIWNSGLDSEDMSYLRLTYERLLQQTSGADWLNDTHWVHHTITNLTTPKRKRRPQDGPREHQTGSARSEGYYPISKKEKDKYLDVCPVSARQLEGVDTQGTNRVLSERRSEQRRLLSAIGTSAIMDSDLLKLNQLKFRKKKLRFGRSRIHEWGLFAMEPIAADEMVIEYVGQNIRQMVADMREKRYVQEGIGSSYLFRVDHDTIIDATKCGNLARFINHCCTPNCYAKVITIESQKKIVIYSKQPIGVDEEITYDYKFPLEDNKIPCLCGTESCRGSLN
UniProt Q9UPS6: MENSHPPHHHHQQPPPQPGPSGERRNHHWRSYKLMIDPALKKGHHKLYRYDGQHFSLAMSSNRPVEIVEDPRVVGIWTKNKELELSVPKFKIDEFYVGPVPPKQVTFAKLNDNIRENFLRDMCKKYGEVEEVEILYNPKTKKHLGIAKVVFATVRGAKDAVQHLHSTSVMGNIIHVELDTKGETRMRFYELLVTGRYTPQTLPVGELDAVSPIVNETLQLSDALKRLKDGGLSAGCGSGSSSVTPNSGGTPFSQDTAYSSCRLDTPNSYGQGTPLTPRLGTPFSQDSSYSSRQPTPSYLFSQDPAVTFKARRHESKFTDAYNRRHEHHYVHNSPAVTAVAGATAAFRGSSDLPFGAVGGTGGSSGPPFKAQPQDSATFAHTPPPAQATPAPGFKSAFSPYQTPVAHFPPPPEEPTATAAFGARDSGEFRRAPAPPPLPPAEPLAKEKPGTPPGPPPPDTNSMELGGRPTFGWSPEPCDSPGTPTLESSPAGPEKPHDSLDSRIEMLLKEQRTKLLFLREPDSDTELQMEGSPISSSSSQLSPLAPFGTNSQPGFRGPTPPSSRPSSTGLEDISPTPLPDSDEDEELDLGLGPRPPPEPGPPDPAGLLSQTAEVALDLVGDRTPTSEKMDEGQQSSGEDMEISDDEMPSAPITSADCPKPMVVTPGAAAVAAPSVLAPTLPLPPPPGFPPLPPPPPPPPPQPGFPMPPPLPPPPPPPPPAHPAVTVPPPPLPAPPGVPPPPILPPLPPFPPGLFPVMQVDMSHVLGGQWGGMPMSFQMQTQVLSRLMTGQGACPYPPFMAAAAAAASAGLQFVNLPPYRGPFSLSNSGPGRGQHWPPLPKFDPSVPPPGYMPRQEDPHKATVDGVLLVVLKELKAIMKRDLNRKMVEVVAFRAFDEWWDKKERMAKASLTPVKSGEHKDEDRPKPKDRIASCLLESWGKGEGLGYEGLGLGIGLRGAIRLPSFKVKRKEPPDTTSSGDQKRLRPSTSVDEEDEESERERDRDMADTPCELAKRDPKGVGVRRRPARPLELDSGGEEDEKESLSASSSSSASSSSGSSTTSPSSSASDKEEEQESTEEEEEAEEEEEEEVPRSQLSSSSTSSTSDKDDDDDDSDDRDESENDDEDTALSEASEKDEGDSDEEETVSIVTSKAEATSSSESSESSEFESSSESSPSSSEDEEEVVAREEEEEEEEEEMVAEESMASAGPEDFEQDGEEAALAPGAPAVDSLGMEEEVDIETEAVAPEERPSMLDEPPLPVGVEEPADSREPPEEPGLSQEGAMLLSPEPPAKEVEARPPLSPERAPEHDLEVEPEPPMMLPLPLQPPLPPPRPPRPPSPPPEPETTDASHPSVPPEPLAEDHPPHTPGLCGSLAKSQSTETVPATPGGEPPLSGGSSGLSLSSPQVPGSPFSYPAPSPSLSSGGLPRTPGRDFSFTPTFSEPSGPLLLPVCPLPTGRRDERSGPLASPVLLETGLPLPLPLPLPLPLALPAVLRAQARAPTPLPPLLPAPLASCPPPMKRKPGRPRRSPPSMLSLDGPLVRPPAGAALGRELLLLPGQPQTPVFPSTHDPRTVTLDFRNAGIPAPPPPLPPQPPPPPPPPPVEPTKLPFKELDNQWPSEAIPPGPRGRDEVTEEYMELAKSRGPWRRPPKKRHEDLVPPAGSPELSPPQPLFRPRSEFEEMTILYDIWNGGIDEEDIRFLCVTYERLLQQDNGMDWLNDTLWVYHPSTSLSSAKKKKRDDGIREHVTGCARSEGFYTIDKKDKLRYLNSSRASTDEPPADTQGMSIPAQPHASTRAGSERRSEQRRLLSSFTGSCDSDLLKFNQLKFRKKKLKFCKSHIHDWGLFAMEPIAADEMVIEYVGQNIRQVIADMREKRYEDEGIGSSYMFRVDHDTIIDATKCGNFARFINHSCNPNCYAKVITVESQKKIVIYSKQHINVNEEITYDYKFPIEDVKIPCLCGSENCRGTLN

[3] = molecular target: BOD1L (human (endogenous in HeLa)) (UniProt Q8NFC6); assay: co-IP; HeLa nuclear extracts clarified at 44,000 x g, immunoprecipitated with 5 ug of the indicated antibody or IgG for 3 hr at 4 C, protein-A Sepharose, immunoblotting; reciprocal immunoprecipitations

binding [1]	binding [2]	binding [3]	Substance
binds	no binding	binds	SETD1A (from UniProt O15047 1-1707) (enzyme)
no binding	–	no binding	SETD1B (from UniProt Q9UPS6 1-1966) (enzyme)

Source: article PMC6039718
